Assay results as given in article PMC4336329 (PLoS ONE, 2015).
Hit rate of the full screen: of about 310,000 compounds, about 14,000 (4.5%) showed an effect of 50% or more. The effect is printed as a negative number. The list shows a part of the results.

molecular target: human ether-à-go-go-related gene (hERG) potassium channel (human, UniProt Q12809); assay: primary screen, population patch clamp on CHO cells stably expressing hERG
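Note: peak tail current of the secondary pulse compared with the same well before compound.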

human ether-à-go-go-related gene (hERG) potassium channel, sequence (Q12809 whole entry, looked up): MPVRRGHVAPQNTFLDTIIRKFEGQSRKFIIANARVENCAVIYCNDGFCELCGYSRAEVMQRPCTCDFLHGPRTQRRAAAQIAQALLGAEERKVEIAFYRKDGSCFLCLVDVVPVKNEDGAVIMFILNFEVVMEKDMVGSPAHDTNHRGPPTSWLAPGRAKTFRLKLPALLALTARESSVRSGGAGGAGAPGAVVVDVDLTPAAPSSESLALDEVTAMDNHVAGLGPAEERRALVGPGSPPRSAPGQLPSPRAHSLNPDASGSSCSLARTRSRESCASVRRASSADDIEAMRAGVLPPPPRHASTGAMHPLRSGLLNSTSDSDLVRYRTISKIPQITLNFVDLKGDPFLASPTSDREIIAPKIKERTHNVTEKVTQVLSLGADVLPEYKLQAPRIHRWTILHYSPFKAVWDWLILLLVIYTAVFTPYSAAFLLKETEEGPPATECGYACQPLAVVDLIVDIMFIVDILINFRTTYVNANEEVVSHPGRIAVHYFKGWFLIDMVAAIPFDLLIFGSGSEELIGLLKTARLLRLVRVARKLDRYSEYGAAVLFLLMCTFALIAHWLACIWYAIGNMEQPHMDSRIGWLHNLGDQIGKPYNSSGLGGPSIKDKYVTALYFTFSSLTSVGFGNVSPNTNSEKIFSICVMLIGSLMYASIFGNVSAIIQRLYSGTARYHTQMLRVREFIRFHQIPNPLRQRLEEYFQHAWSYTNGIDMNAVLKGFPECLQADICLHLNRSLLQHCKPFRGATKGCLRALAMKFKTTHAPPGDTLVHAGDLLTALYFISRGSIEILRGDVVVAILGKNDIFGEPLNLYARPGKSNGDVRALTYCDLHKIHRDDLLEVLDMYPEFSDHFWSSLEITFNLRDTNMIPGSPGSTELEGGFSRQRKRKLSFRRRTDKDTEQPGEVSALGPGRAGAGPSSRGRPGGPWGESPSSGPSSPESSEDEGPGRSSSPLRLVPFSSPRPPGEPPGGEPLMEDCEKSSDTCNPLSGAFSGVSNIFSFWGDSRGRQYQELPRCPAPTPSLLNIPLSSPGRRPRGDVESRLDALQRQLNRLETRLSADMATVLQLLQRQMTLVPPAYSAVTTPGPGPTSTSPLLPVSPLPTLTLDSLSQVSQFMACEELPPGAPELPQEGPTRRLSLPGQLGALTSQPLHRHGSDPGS

Row | Structure (SMILES) | hERG current change (%, negative = inhibition) at 10uM [%]
1 | Cc1nccn1CC(O)COc1ccccc1 (stereo not drawn) | -0.412
2 | Cc1ccc2c(=O)c(C(=O)c3ccc(F)cc3)cn(CC(=O)NCc3ccco3)c2n1 | -5.4
3 | O=C(c1cccc(OC(F)F)c1)N1CCN(c2ncccn2)CC1 | -12.5
4 | Nc1nc(Nc2ccccc2F)nc(N2CCOCC2)c1[N+](=O)[O-] | 4.6
5 | Cc1ccc2oc(C(=O)NCC3CCOCC3)c(C)c2c1 | 8.07
6 | COc1cc(C2C(C#N)=C(N)N(Nc3ccccc3)C3=C2C(=O)CC(C)(C)C3)ccc1OCc1cccc(F)c1 (stereo not drawn) | 18.6
7 | Cc1ccc(S(=O)(=O)N2CCOCC2)cc1C(=O)NC(=S)N1CC(C)OC(C)C1 (stereo not drawn) | 9.57
8 | CCC(=O)Nc1ccccc1C(=O)C(=O)Nc1ccccc1 | 9.67
9 | CCOC(=O)c1cccc(NC(=O)CS(=O)(=O)Cc2nc(-c3cccc(OC)c3)oc2C)c1 | -28
10 | O=C1OCc2cc(NC(=O)C3CCCCC3)ccc21 | 13.3
11 | COc1cccc(-c2nc(NCc3ccco3)c3ccccc3n2)c1O | 1.44
12 | Cc1ccc(-c2nn(Cc3ccccc3)cc2C(=O)O)cc1 | 21.7
13 | O=C(N/C(=C/c1ccccc1F)C(=O)N1CCCCC1)c1ccccc1 | 10.1
14 | CCOC(=O)c1c(C)[nH]c(C(=O)OCC(=O)Nc2ccc(OC)c(Cl)c2)c1C | 17.6
15 | COc1ccc(NC(=O)C(=O)NCCC2CCCCN2S(=O)(=O)c2ccc(F)cc2)cc1 (stereo not drawn) | -31.4
16 | COc1cccc(N=Nc2c(N)[nH]n3c(=O)cc(-c4ccccc4)nc23)c1 | -3.64
17 | Cc1cccc(N2CCN(C(=O)CCNS(=O)(=O)c3ccc4c(c3)CCC(=O)N4)CC2)c1C | -44.6
18 | O=C(Nc1ccc(NC(=O)C23CC4CC(CC(C4)C2)C3)cc1)c1cc(F)c(F)cc1Cl | 8.93
19 | Cc1ccc(S(=O)(=O)N2CCN(CC(O)c3ccccc3)CC2)cc1C (stereo not drawn) | 34.4
20 | CCn1c(SCC(=O)Nc2ccc(OC)cc2)nc2nc3c(cc2c1=O)COC(C)(C)C3 | -72.6
21 | Oc1ccc(-c2n[nH]c(C(F)(F)F)c2-c2ccccc2)c(O)c1 | 14.7
22 | Cc1ccc(C(=O)O/N=C(\N)c2nonc2N)cc1 | -8.67

Row | Structure (SMILES) | hERG current change (%, negative = inhibition) at 10uM [%]
23 | CCC1(C)Cc2c(sc3nnn(CC(=O)Nc4ccc(Cl)cc4)c(=O)c23)CO1 (stereo not drawn) | 13.5
24 | COc1ccc2[nH]c(O)c(N=O)c2c1 | 3.93
25 | Cn1c(SC/C=C/c2ccccc2)nnc1-c1ccco1 | -27.1
26 | Cc1nn(Cc2ccccc2)c2sc(C(=O)N3CCN(Cc4ccc5c(c4)OCO5)CC3)cc12.Cl | -5.87
27 | CCOc1cc(C=C(C(=O)OC)C(=O)OC)ccc1OCc1ccc([N+](=O)[O-])cc1 | 4.17
28 | CCOc1ccc(NC(=O)CSc2ccccc2N)cc1 | 2.68
29 | O=C1CC(c2cccc(Br)c2)c2cc3c(cc2N1)CCC3 (stereo not drawn) | -3.47
30 | Cc1ccc(S(=O)(=O)NCCn2cnc([N+](=O)[O-])n2)cc1 | 26.7
31 | N#CC1(c2ccccc2)CCCN1C(=O)c1ccc(Br)cc1 (stereo not drawn) | -8.79
32 | O=S(=O)(Nc1cccc(CO)c1)c1cccs1 | 14.7
33 | Cc1[nH]c2ccccc2c1/C=N/NC(=O)CNC(=O)COc1ccccc1 | 16.6
34 | CCc1sc(C(=O)Nc2ncccc2C)cc1C | 22.4
35 | O=S(=O)(c1ccc(S(=O)(=O)N2CCCC2)cc1)N1CCCCC1 | 4.73
36 | CC([NH2+][O-])C(C)(C)NO.[Cl-] (stereo not drawn) | 25.3
37 | Cc1ccc(C2(C)NC(=O)N(CC(=O)Nc3ccccc3C(=O)NC3CCCC3)C2=O)cc1 (stereo not drawn) | -32.8
38 | O=C(O)CC[N+](=O)[O-] | 15.3
39 | O=C(COc1ccccc1[N+](=O)[O-])N1CCN(S(=O)(=O)c2ccccc2)CC1 | -46.6
40 | Cc1cccc(-c2nc(CS(=O)CC(=O)N3CC(C)CC(C)C3)c(C)o2)c1 (stereo not drawn) | -25.3
41 | Cn1ccnc1SCC(=O)Nc1ccc2nc(SCC(=O)NC3CC3)sc2c1 | 3.74
42 | CCC1(c2ccc(F)cc2)NC(=O)N(CC(=O)N2CCN(S(=O)(=O)c3ccc(Cl)cc3)CC2)C1=O (stereo not drawn) | -6.7
43 | COc1ccc(-c2cccc(NS(=O)(=O)c3ccccc3[N+](=O)[O-])c2)nn1 | 14.8
44 | CC(=O)c1ccc(S(=O)(=O)NC2CCCCCCC2)cc1 | 12.7

Row | Structure (SMILES) | hERG current change (%, negative = inhibition) at 10uM [%]
45 | CC1Cc2nc(SCC(=O)NCC3CCCO3)n(Cc3ccccc3)c(=O)c2S1 (stereo not drawn) | -21.7
46 | OC(CN1CCN(c2ccccc2)CC1)c1c[nH]c2ccccc12 (stereo not drawn) | -31.4
47 | O=S(=O)(NCC1CCCO1)c1cccc(S(=O)(=O)N2CCCC2)c1 (stereo not drawn) | -14
48 | O=C(C[n+]1ccc(/C=N/O)cc1)NCc1ccccc1.[Cl-] | -3.42
49 | COc1ccc(N2C(=O)c3ccccc3NC2c2cccnc2)cc1 (stereo not drawn) | 16.3
50 | O=[N+]([O-])c1ccc(Oc2cccc3cccnc23)c(Cl)c1 | -15.4
51 | N#CCCN1CCCc2cc(N=Nc3ccc(C(F)(F)F)cc3)ccc21 | 13.4
52 | CCN(CC)Cc1c(O)ccc2c(=O)c(-c3ccccc3)coc12.Cl | -1.91
53 | CCCCCC(=O)Nc1ncc2c(n1)CC(c1cccs1)CC2=O (stereo not drawn) | -30
54 | Cn1ccnc1C1CCCCN1Cc1nc(Cc2ccccc2F)no1 (stereo not drawn) | -1.47
55 | COC(=O)c1ccccc1OCc1cccc(C)n1 | 12.6
56 | FC(F)(F)c1nnc2c(Sc3ccccn3)nc3ccccc3n12 | 15.5
57 | Cc1ccc(S(=O)(=O)NC(=O)c2cc(C)n(CCCn3ccnc3)c2C)cc1 | -2.28
58 | O=C(COc1ccc(S(=O)(=O)NC2CCCC2)cc1)N1CCCCC1 | 5.57
59 | O=c1cc(Nc2ccc3c(c2)OCCO3)[nH]c(=O)n1C1CCCCC1 | -2.29
60 | Cc1cccc(NC(=O)CN2C(=O)S/C(=C\C(=O)Nc3ccc(Cl)cc3)C2=O)c1 | 31.7
61 | Cc1cc(C)n(Cc2cnc(N3CCOCC3)s2)n1 | 14.9
62 | Cc1nn(C(=O)C2CC2)c(C)c1Sc1ccc(Cl)cc1 | 19.9
63 | O=C(N/N=C/c1ccc([N+](=O)[O-])cc1)c1ccc2nc[nH]c2c1 | 8.66
64 | O=C(NC1CCC(=O)N(CCSc2ccccc2)CC1)OCc1ccccc1 (stereo not drawn) | -59.2
65 | COc1ccc(/C=N/NC(=O)c2ccccc2O)cc1Cn1cc([N+](=O)[O-])cn1 | 10.6
66 | NC(=O)COC(=O)c1cc(-c2ccco2)nc2ccccc12 | -9.66

Row | Structure (SMILES) | hERG current change (%, negative = inhibition) at 10uM [%]
67 | CCc1cccc(CC)c1N(COC)C(=O)Cn1c(CO)nc2ccccc21 | 2.52
68 | CC(C)Cn1c(CCCNC(=O)c2ccc(F)cc2)nc2ccccc21 | -50.3
69 | CN(C)CCN1C(=O)C(O)=C(C(=O)c2cc3ccccc3o2)C1c1cccc(Br)c1 (stereo not drawn) | 18.8
70 | Cc1ccc(N(CC(=O)N/N=C/c2ccco2)S(=O)(=O)c2ccccc2)cc1 | -2.32
71 | CCCCC(c1nnnn1Cc1ccco1)N1CCN(C(=O)c2ccco2)CC1.Cl (stereo not drawn) | -51.8
72 | O=[N+]([O-])c1ccc(N2CCN(S(=O)(=O)c3ccc(Cl)c(Cl)c3)CC2)cc1NCCN1CCOCC1 | 3.04
73 | CCOc1ccccc1C(=O)N1CCN(C(c2ccccc2)c2ccccc2)CC1 | 0.314
74 | Cc1cccc(Nc2nc(N)c([N+](=O)[O-])c(N3CCOCC3)n2)c1 | -37.1
75 | COC(CNC(=O)C1CCN(C(=O)c2cc3oc(C)cc3n2Cc2c(F)cccc2Cl)CC1)OC | 2.22
76 | Cc1ccc(OCCNC(=O)CN2C(=O)NC3(CCCC3)C2=O)cc1 | -6.56
77 | CC(=O)NCC(=O)O.CN(C)CCC1c2ccc(Cl)cc2CCc2cccnc21 (stereo not drawn) | -11.7
78 | COCCn1c(SCc2cnc(-c3ccccc3)s2)nnc1-c1ccncc1 | -25.7
79 | Cc1ccc(/C=C/C2=NN(Cc3ccccc3)C(=O)CC2)cc1 | 11.2
80 | O=C(OCC(=O)N1CCN(c2ccccc2)CC1)c1ccccc1OC(F)F | -11.9
81 | Cn1c(CNC(=O)c2ccc(Cl)cc2)nnc1SCC(=O)NC1=NCCS1 | 3.89
82 | O=C(NNC(=O)c1cccnc1)Nc1ccccc1 | 1.09
83 | CCOP(=O)(OCC)C(NC(=O)Nc1ccccc1)C(N)=O (stereo not drawn) | 9.93
84 | FC(F)Sc1ccc(NC(=S)NC2CCC(NC(=S)Nc3ccc(SC(F)F)cc3)CC2)cc1 (stereo not drawn) | 4.68
85 | COc1cccc(-n2c(=O)n(Cc3ccccc3)c(=O)c3[nH]cnc32)c1 | -16.1
86 | O=C(COC(=O)C12CC3CC(CC(C3)C1)C2)NCc1ccco1 | -8.35
87 | CCC1(c2ccccc2)NC(=O)N(CC(=O)N(C)CC(=O)Nc2cccc(F)c2)C1=O (stereo not drawn) | 15.5
